Measured values from PubChem BioAssay AID1159614 (National Center for Advancing Translational Sciences (NCATS), 2016).
Among all 45,000 compounds or so, about 65 (0.1%) were called active. Calls follow the shape of the dose curve; as a rule, active = well fitted activation curve with a large enough effect; inconclusive = small, poorly fitted or top-dose-only effect; inactive = no such curve, though single readings can be large or run the other way. Some of the results follow. Bridge positions count the residues as written; N and C are the ends. Square brackets hold non-standard residues; d marks the D form. Peptide text beside a SMILES is read from it. hArg = N=C(N)NCCCC[C@H](N)C(=O)O; Mpa = O=C(O)CCS

Target: Galactocerebrosidase (Homo sapiens) (UniProt P54803)
Test: A Novel Cell-Based Assay to Identify Small Molecules for B -Galactocerebrosidase; also: 0% is about no effect; nearly all actives have a fitted effect of over 65% in size
Conditions: 145M-Twi-hGALC-G270D cells, HMU-beta-Gal fluorescence, 48 h; series mostly up to 57.5 µM; activation: at the top concentration
Method in brief: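 qHTS, 1536-well; 145M-Twi-hGALC-G270D cells (WT line also made) in DMEM/F12 + 10% FBS; compound incubation on live cells; HMU-β-gal 0.1 mM final, pH 5.2, NaTC; carbonate stop; fluorescence increase = enhanced residual activity.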

UniProt P54803, sequence (P54803 whole entry, looked up): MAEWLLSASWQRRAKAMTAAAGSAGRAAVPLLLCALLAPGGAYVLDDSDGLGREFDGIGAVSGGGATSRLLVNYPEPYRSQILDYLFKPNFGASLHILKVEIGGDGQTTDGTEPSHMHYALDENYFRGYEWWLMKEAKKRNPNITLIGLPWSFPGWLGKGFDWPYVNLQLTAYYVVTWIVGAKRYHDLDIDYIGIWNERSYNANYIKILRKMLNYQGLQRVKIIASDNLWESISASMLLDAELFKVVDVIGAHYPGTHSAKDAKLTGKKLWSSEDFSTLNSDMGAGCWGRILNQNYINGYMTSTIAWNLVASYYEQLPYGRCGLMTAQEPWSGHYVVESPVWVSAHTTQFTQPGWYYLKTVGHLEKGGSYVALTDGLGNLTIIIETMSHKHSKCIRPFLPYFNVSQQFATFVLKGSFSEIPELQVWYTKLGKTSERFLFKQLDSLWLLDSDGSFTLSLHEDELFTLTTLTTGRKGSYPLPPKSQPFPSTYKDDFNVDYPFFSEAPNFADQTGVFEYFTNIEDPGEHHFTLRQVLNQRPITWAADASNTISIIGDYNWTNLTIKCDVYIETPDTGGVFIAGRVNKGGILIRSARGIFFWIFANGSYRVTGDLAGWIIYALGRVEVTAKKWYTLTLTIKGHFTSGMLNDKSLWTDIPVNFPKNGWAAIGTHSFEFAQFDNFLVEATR

activation, inactive:
Cc1ccc2cccc(NC(=O)COc3ccccc3[N+](=O)[O-])c2n1 -16.8%, CCCCc1ccc(-n2nc3cc(C)c(NC(=O)Cc4ccccc4)cc3n2)cc1 -18.1%, CCOC(=O)c1c(C)oc2nc(C)nc(NCc3ccccc3Cl)c12 -19.5%, COC(=O)c1ccccc1NC(=O)Cn1cc(S(=O)(=O)Cc2ccccc2F)c2ccccc21 3.18%, CCc1ccc(N(CC)C(=O)c2ccc3c(=O)n4c(nc3c2)CCCCC4)cc1 -10.1%, COC(=O)c1c(-c2cccs2)csc1NC(=O)c1ccc(Cl)cc1 -26.1%, COCCN1C(=O)c2[nH]nc(-c3ccccc3O)c2C1c1ccc(OCc2ccccc2)c(OC)c1 (centres undefined) 0.929%, Cc1cccc(CN2C(=O)c3ccccc3Sc3ccc(C(=O)N4CCCC4)cc32)c1 -35.1%, O=C(Nc1cc(Cl)cc(Cl)c1)c1ccc(F)c(S(=O)(=O)NC2CCCC2)c1 -10.7%, CCOC(=O)c1c(NC(=O)COc2ccccc2F)sc2c1CCCC2 0.746%, CCOC(=O)c1c(NC(=O)/C=C/c2ccccc2)sc2c1CCCC2 -13.4%, COc1ccc(N2CCN(C(=O)c3ccc(C)c(NC(=O)c4nsc5ccccc45)c3)CC2)cc1 -14.2%, COc1ccc(OC)c(S(=O)(=O)NCCc2sc(-c3ccc(C)cc3)nc2C)c1 2.74%, Cc1ccc2c(=O)c(C(=O)c3ccc(F)cc3)cn(CC(=O)NCc3ccccc3)c2n1 -10.8%, COc1cccc(Cn2c(CNC(=O)C(C)C)nc3cccnc32)c1 -6.23%, COc1ccccc1Nc1nn2c(=O)c3ccc(C(=O)NCc4cccs4)cc3nc2s1 -18.7%, COC(=O)c1cc(S(=O)(=O)NCC2CCN(Cc3cc(C)ccc3C)CC2)c[nH]1 -15.9%, COc1ccc(-c2cn3c(n2)sc2cc(C(=O)NCc4ccccc4OC)ccc23)cc1 -10.1%, CC(C)(C)OC(=O)N1CCC(c2c(C(=O)NCc3ccccn3)cnn2-c2ccccc2)CC1 -9.28%, COc1ccc(C(=O)Nc2ccc(-c3nc4ncccc4o3)cc2)cc1 -19.7%, Cc1cc(NC(=O)CCCn2c(C)c3cnn(-c4ccccc4)c(=O)c3c2C)ccc1Br -13.2%, CCOc1ccccc1NC(=O)CN1C(=O)CC(c2ccco2)Sc2ccccc21 (centres undefined) -9.15%, Cc1cc(C)cc(C(=O)N(Cc2nc(-c3ccc(Cl)cc3)no2)C(C)C)c1 -25.6%, O=S(=O)(c1ccc2ccccc2c1)n1nc(-c2ccco2)nc1NCc1ccc(F)cc1 -6.08%, Cc1ccc(C(=O)Nc2ccc(-c3nc4ccccc4s3)c(O)c2)c(C)c1 -28.7%, COCCCNC(=O)c1c(NC(=O)c2nc(S(C)(=O)=O)ncc2Cl)sc2c1CCCC2 -19.5%, COCCNC(=O)C(=O)NCC(c1ccc2c(c1)OCO2)N1CCOCC1 (centres undefined) -12.3%, CCN(C(=O)CSc1ncc(S(=O)(=O)c2ccc(C)c(Cl)c2)c(=O)[nH]1)c1cccc(C)c1 3.01%, COC(=O)c1ccc(OCC(O)Cn2cnc3cc(C)c(C)cc32)cc1 (centres undefined) -9.45%, Cc1ccc(CNC(=O)c2cnc(N(C)C)nc2)cc1 1.6%, Cc1cc(NC(=O)c2ccc(-c3ccc(Cl)cc3)o2)cc(-c2nc3ncccc3o2)c1O -5.71%, CCCCN(C)CCNC(=O)c1cc(=O)[nH]c2ccc(S(=O)(=O)N3CCCCCC3)cc12 -5.78%, Cc1ccc(NC(=O)CS(=O)(=O)c2nc(-c3ccc(C)cc3)cn2-c2ccc(C)cc2)cc1 -7.76%, Cc1nc(-n2nc(C)c(Cc3ccccc3Cl)c2C)sc1C(=O)N1CCCCC1C (centres undefined) -15.2%, COc1ccc(NC(=O)c2oc3ccccc3c2NC(=O)c2cc(=O)c3c(C)cc(C)cc3o2)cc1 -10.4%, Cc1ccc(NC(=O)c2ncn(-c3ccccc3)n2)cc1Cl -2.98%, COc1ccc(-c2nc(C(=O)Nc3cccc(C(C)=O)c3)nn2-c2ccc(Cl)cc2)cc1 12.2%, COc1ccc(OC)c(Nc2nc3ccccc3n3c(C)nnc23)c1 -8.83%, NC(=O)[C@@H]1CSSCCC(=O)N[C@@H](CCCCN=C(N)N)C(=O)NCC(=O)N[C@@H](CC(=O)O)C(=O)N[C@@H](Cc2c[nH]c3ccccc23)C(=O)N2CCC[C@H]2C(=O)N1 ([Mpa][hArg]GDWPC-NH2; disulfide 1-7) -13.3%, CCOc1ccccc1NC(=O)CC1C(=O)NCCN1C(=O)c1ccc(F)cc1 (centres undefined) -1.05%, O=C(Nc1cc(-c2nc3cc(Cl)ccc3o2)ccc1Cl)c1cccs1 0.633%, COc1ccc(-c2nc(CN3CCC(C(=O)NCCCN4CCN(c5ccccc5F)CC4)CC3)c(C)o2)cc1OC -9.75%, C#CC(C)(CC)NC(=O)Cn1nnc(-c2ccc(OCc3ccccc3F)cc2)n1 (centres undefined) -9.77%, COc1ccc(COC(=O)c2[nH]c3c(c2C)C(=O)CC(c2ccc(OC)c(OC)c2)C3)cc1 (centres undefined) -16.2%, COc1ccccc1-c1c(C)nn2c(N3CCN(c4cccc(Cl)c4)CC3)cc(C)nc12 -5.79%, Cc1c(NS(=O)(=O)c2cccc(C(=O)O)c2)c(=O)n(-c2ccccc2)n1C -15.6%, COc1ccc(OC)c(NC(=O)c2cc3c(s2)-c2ccccc2SC3)c1 -7.95%, CCC(=O)N1c2ccccc2CC1C(=O)NCc1ccccc1C (centres undefined) -21.3%, O=C(CSc1nnc(CNC(=O)c2c(F)cccc2Cl)o1)Nc1ccccc1F -16.1%, CC(=O)SC[C@@H](C)C(=O)N1CCC[C@H]1C(=O)N[C@@H](Cc1ccccc1)C(=O)O -15.6%, COCCCNC(=O)c1cc2n(n1)CCCN(Cc1ccc(C)cc1)C2=O 18.8%, CC[C@H](C)[C@H](N)C(=O)O -12.5%, Cc1ccc(C)c(NS(=O)(=O)c2ccc3c4c(cccc24)C(=O)N3)c1 -11.1%, COc1cccc(Cn2nnc3c(=O)[nH]c(C4CCCN(C(=O)c5ccc(C)cc5)C4)nc32)c1 (centres undefined) -1.67%, CNc1nc(Oc2ccc(=O)n(C)n2)nc(N2CCOCC2)n1 -15.4%, Cc1ccc(-n2ncc(C(=O)NC3CCCC3)c2C2CCN(C(=O)OC(C)(C)C)CC2)c(C)c1 -4.02%, CS(=O)(=O)c1ncc(N(Cc2ccco2)Cc2ccco2)c(C(=O)Nc2ccccc2Br)n1 -2.33%, CC1=C(C(=O)OCc2ccc(C)cc2)C(c2c(Cl)cccc2Cl)CC(=O)N1 (centres undefined) 2.35%, C=CCc1cccc2cc(C(=O)Nc3cccc(Cl)c3)c(=O)oc12 -15.4%
